In PubChem BioAssay (NCATS):
Inconclusive means that the source gave no clear call. Such entries were picked first, then a sample of the others. Where the call is inconclusive, the potency comes from a doubtful curve fit. Calls of active or inactive are those of the source. Calls follow the shape of the dose curve; as a rule, active = well fitted activation curve with a large enough effect in the signal ratio, with a control signal flat (not every such curve was filed as active); inconclusive = small, poorly fitted or top-dose-only effect, or effect the other way, or a change in a side signal; inactive = flat fitted curve, though single readings scatter; the % refers to the signal ratio.

Experiment: qHTS Assay for Identification of Small Molecule Agonists for Hypoxia Response Element Signaling Pathway (AID 914); as to activation: top concentration of the series differs between compounds; % of control where 0% means no effect
Details: ME-180 (cervical carcinoma) HRE-bla reporter, beta-lactamase ratio, CoCl2, 17 h; activation: active compounds read high
Summary of the method: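 HRE-bla ME-180 assay for agonist-like enhancement of an EC50 CoCl2 stimulus: 17 h at 37 degrees Celsius, CCF4 for 2.5 h, ratiometric 460/530 nm signal converted to %Activity and fitted to AC50.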
Potency is read from the fitted curve at half-maximal effect; tags tell the direction and shape of the fitted curve or compound fluorescence and quenching.

Which activation does the source give for CC(C)(C[C@@]1(C)NC(=O)NC1=O)OCc1ccccc1 here?
The activation was inconclusive: -1.43%.

For NC(=O)C[C@@H](N)c1nn[nH]n1, which activation is on record?
Its activation is inconclusive: 10.5%.

For Cn1c(NCCCO)nc2c1c(=O)n(Cc1ccccc1F)c(=O)n2C, which activation is on record?
Its activation is inactive: -5.37%.

With COCCCn1c2nc3ccccc3nc2c2c(=O)n(-c3ccccc3OC)c(C)nc21 as the molecule, how does the activation read?
Its activation is inconclusive: 23.1%.

For CCOC(=O)c1c(-c2cccs2)csc1NC(=O)CCCC(=O)O, which Potency is on record?
Its Potency is inconclusive: 1.58 µM [inhibitor, partial curve].

With CCOc1cccc(N2C(=O)CC(N(CCc3ccc(OC)c(OC)c3)C(=O)CC)C2=O)c1 (stereo unspecified) as the molecule, how does the activation read?
The activation was inactive: 11%.
